According to PubChem BioAssay (NCI):
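48-hour exposure; five concentrations; linearly interpolated endpoints. GI50 is the concentration that inhibits growth by half. TGI marks complete inhibition of growth.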 Calls of active or inactive are those of the source. Cut-off read from the data, not from the text of the source: active = GI50 below about 0.43 µM; inactive = the rest.

tested on: NCI-H322M lung; experiment: NCI anticancer screen, dose series, 48 h

SMILES | TGI | GI50 | outcome
COC(=O)CCCc1c(-c2[nH]c3ccccc3c2CCCC(=O)OC)[nH]c2ccccc12 | > 100 µM |  | 
CCC(C(C)N1CC(=O)NC(=O)C1)N1CC(=O)NC(=O)C1 (stereo unspecified) | > 100 µM |  | 
CO[C@H](C(=O)[C@@H](O)[C@@H](C)O)[C@@H]1Cc2cc3cc(O[C@H]4C[C@@H](O[C@H]5C[C@@H](O)[C@H](O)C(C)O5)[C@H](O)C(C)(O)O4)cc(O)c3c(O)c2C(=O)[C@H]1O[C@H]1C[C@@H](O[C@H]2C[C@@H](O[C@H]3C[C@@H](OC)[C@H](O)C(C)O3)[C@@H](O)C(C)O2)[C@H](O)C(C)O1 (stereo partly specified) | > 16.8 µM | 0.798 µM | 
N=C(N)SCCc1ccncc1 | > 100 µM |  | 
COC(=O)[C@]12CSCN1C(=O)C(C(C)=O)=NN2C(=O)[C@](OC)(c1ccccc1)C(F)(F)F | > 100 µM |  | 
FC(F)(F)c1ccc(-c2cncn2-c2ccccc2)cc1 | 46.1 µM | 17 µM | 
COC(=O)c1cc2c3c(c1)Oc1cc(C(=O)OC)cc4c1C3c1c(cc(C(=O)OC)cc1O4)O2 | > 100 µM |  | 
CC(C)(N=NC(C)(C)C(=N)N)C(=N)N | > 100 µM |  | 
CCN(CC)CCN1C=CC(C)C(C(=O)O)C1C(N)=O (stereo unspecified) | > 100 µM |  | 
CC(C)C(Br)CC/C(CBr)=C(\Cl)CCl (stereo unspecified) | 27.9 µM |  | 
N#CC(=N)c1ncn(CCO)c1NC(=O)C(F)(F)F | > 100 µM |  | 
Cc1ccc(C2c3c(n(C)c(=O)n(C)c3=O)OC(N(C)C)(N(C)C)C2(F)F)cc1 (stereo unspecified) | > 100 µM |  | 
O=C(O)c1cc(-c2ccc3c(O)ccc(O)c3c2)ccc1O | > 100 µM |  | 
CC(=O)Oc1ccc(O)c2c1CCCC2 | > 100 µM |  | 
COc1cccc2c(Nc3ccc(S(=O)(=O)Nc4ncccn4)cc3)c3ccc([N+](=O)[O-])cc3nc12 | > 100 µM |  | 
C=CC(=O)NC(O)(C(=O)OCC)C(F)(F)F (stereo unspecified) | > 100 µM |  | 
COc1ccc(P2(=S)Oc3ccc(C(c4ccccc4)(c4ccccc4)c4ccccc4)cc3O2)cc1 (stereo unspecified) | 28.1 µM |  | 
COC(=O)C1CC2C=CC1N(C(=O)OCc1ccccc1)C2 (stereo unspecified) | > 100 µM |  | 
COC(=O)C12CCC(C(F)(F)C1=O)C2(C)C (stereo unspecified) | > 100 µM |  | 
CNc1nc(SC)nc2c1c(N)nn2C | > 100 µM |  | 
CCc1n[nH]c(=O)n1NC(=O)CCCC(=O)O | > 100 µM |  | 
O=C(OCCN1CCCCCC1)C(c1ccsc1)C1CCCCC1 (stereo unspecified) | 41 µM |  | 
CC(=O)OC[C@]1(C)C=C2C(=O)[C@](C)(O)C3(CC3)C(C)=C2[C@H]1OC(=O)N(C)CCN(C)C(=O)OC(C)(C)C | 7.45 µM | 1.1 µM | 
CC(C)[C@]12O[C@H]1[C@@H]1O[C@]13[C@]1(O[C@H]1C[C@H]1C4=C(CC[C@@]13C)C(=O)OC4)[C@@H]2OC(=O)CN(C)C | > 100 µM | 0.0254 µM | 
c1ccc(NNN2NC(c3ccccc3)C2c2ccccc2)cc1 (stereo unspecified) | > 100 µM |  | 
O=C(Nc1ccn(CCOC(=O)c2ccccc2)c(=O)n1)c1ccccc1 | > 100 µM |  | 

SMILES | TGI | GI50 | outcome
CCOC(=O)c1cc(NC(=O)N(CCC#N)CCN(C(=O)N[C@@H](Cc2ccccc2)C(=O)N[C@@H](CC(C)C)C(=O)NC)c2ccccc2)ccc1OC | > 100 µM |  | 
O=C1OCC2=C1C(c1cccc(Cl)c1)c1cc3c(cc1N2CCO)OCO3 (stereo unspecified) | > 94.8 µM | 0.738 µM | 
CCCCCCC[C@@H](O)CC(=O)NC(CC(C)C)C(=O)NC(CCC(=O)O)C(=O)NC1C(=O)NC(C(C)C)C(=O)NC(CC(C)C)C(=O)NC(CO)C(=O)NC(CC(C)C)C(=O)NC(CO)C(=O)NC(C(C)CC)C(=O)OC1C (stereo partly specified) | 27.3 µM |  | 
COc1cccc([C@@]2(O)c3c(ccc(O)c3OC)[C@H]2OC)c1OC | > 100 µM |  | 
O=C1CC(c2ccccc2Cl)Oc2ccccc21 (stereo unspecified) | > 100 µM |  | 
Cc1cc(O)c2c3c1C(=O)Oc1c(CO)c(O)c(C(=O)O)c(c1O3)C=NN=Cc1c3c(c(CO)c(O)c1C(=O)O)OC(=O)c1c(C)cc(O)c(c1O3)C=NN=C2 | > 100 µM |  | 
N#Cc1c(-c2ccccc2)c(C#N)c(=S)n(C2OC(CO)C(O)C(O)C2O)c1N (stereo unspecified) | > 100 µM |  | 
CC(=O)OCC1OC(n2c(-c3cccs3)c3c(c(C#N)c2=S)-c2ccccc2CC3)C(OC(C)=O)C(OC(C)=O)C1OC(C)=O (stereo unspecified) | > 100 µM |  | 
NC(=O)c1cccc(N2Cc3ccccc3OC3=C2C(=O)c2c(O)ccc(O)c2C3=O)c1 | 10.3 µM | 2.83 µM | 
O=C1c2ccc(O)cc2OC(c2cc(O)c(O)c(O)c2)C1O (stereo unspecified) | > 100 µM |  | 
C[C@@]1(CO)O[C@H]1CCC#C[Si](C)(C)C |  |  | inactive
NC1CSc2ccccc2NC1=O (stereo unspecified) | > 100 µM |  | 
COC(=O)C1=C(O)[C@H](C(=O)OC)C2(O)[C@@H](C(=O)OC)[C@H]1C[C@@H](c1ccc(OC(=O)n3ccnc3)cc1)[C@@H]2C(=O)OC | > 50 µM | 21.6 µM | 
Cc1c2cnccc2c(C)c2c1c1cc(CO)ccc1n2C | 1.71 µM | 0.24 µM | 
COc1cc(/C=N/c2nncs2)ccc1O | > 100 µM |  | 
CN([O-])c1nc(N(C)[O-])nc(N2CCOCC2)n1.CN([O-])c1nc(N(C)[OH2+])nc(N2CCOCC2)n1.[Fe+3] | > 100 µM | 79.3 µM | 
O=C(O)CCCn1c(SCc2c(Cl)cccc2Cl)nc2ccsc2c1=O | > 100 µM | 0.68 µM | 
Cc1ccc2c(c1)C(=O)c1[nH]c3ccc(F)cc3c1CO2 | > 100 µM |  | 
CC1=CC2CCC1(C)C/C2=C(/C)OC=O (stereo unspecified) | > 100 µM |  | 
COc1ccc(-c2cc(-c3cc(F)c(Cl)cc3Cl)[nH]n2)cc1OC | > 100 µM |  | 
O=C(/C(=C\c1ccccc1)CN1CCOCC1)c1ccc(Br)cc1 | 21.4 µM |  | 
O=[N+]([O-])/C(C(Cl)=C(Cl)Cl)=C(\Nc1cccc2ccccc12)Sc1ccccc1 | 63.8 µM |  | 
Cc1cc(-c2no[n+]([O-])c2-c2cc(C)sc2S(C)(=O)=O)c(S(C)(=O)=O)s1 | > 100 µM |  | 
C[C@@H]1CCC[C@]2(C)O[C@H]2CC[C@@](C)(O)[C@@H]2CC3=C(CO)C(=O)O[C@H]3[C@H]1O2 | > 50 µM |  | 
S=C1NCN2CCN(CC2)CNC(=S)C(=S)NCN2CCN(CC2)CNC1=S | > 100 µM |  | 
